Out of some 340,000 compounds screened, about 12,000 (3.5%) were called active. The shares of active, inactive and inconclusive entries below differ from those in the screen. Calls come from the whole dose curve; as a rule, active = well fitted inhibition curve with a large enough effect; inconclusive = small, poorly fitted or top-dose-only effect, or another doubt; inactive = no such curve, though single readings can be large or run the other way. Potencies of inconclusive entries are left out as doubtful fits.
Experiment: qHTS Assay for Inhibitors of Hepatitis C Virus (HCV)
Conditions: Huh7.5.1 HCVcc-Cre (HCVcc is cell-culture hepatitis C virus) infection, luciferase reporter, 44 h; series mostly up to 41.8 µM
In short: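 Infectious HCV cell culture screen: compound-treated cells (1,000/well, pre-plated 4 h) are infected with HCVcc-Cre at roughly 0.5 moi and grown 44 h. Infection is quantified by luciferase signal after 15 min substrate incubation at room temperature.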
Potency is the fitted concentration of half-maximal effect; tags give direction and shape of the fitted curve.

SMILES	Potency
Cc1ccsc1C(=O)OCC(=O)N1CCN(c2ccccc2)CC1	inconclusive [inhibitor, partial curve]
CN1CCN(C(=S)SCC(=O)Nc2nc(-c3ccccc3)c(-c3ccccc3)o2)CC1	inconclusive [inhibitor, single point]
CC(C)=CCc1c(O)cc(O)c2c(=O)c3c(CC=C(C)C)c(O)ccc3oc12	inconclusive [inhibitor, full curve]
COc1ccc(-c2cc(C(F)(F)F)nc(NCc3cccnc3)n2)cc1	inconclusive [inhibitor, single point]
COC(=O)C1C(=O)C2=C(CC1C)NC(C)=C(C(=O)OCc1ccc(OC)cc1)C2c1ccc(C)o1 (stereo not drawn)	inconclusive [inhibitor, single point]
N=c1c(S(=O)(=O)c2ccc(Cl)cc2)cc2c(=O)n3ccccc3nc2n1CCN1CCOCC1	active: 12.6 µM
CCC(=O)c1c(CC)c2n3c1CC[C@H]3CCC2	inactive
CC1CCCC(NC(=O)c2cc(S(=O)(=O)N3CCCCC3)ccc2Cl)C1C (stereo not drawn)	inconclusive [inhibitor, single point]
O=C(CCNC(=O)c1ccc(Cl)cc1)Nc1ccc(S(=O)(=O)N2CCOCC2)cc1	inactive
Cc1nc2ccc(NS(=O)(=O)c3ccc(F)cc3)cc2s1	inconclusive [inhibitor, single point]
Cc1ccc(NS(=O)(=O)c2ccc(C(=O)NCCCN3CCCC3=O)cc2)cc1C	inconclusive [inhibitor, single point]
CC1(C)OC(=O)N(c2ccccc2)C12C=Cc1cc(Br)ccc1O2 (stereo not drawn)	inconclusive [inhibitor, partial curve]
Cc1ccsc1CNCc1cc(Cl)ccc1O	inconclusive [inhibitor, single point]
Cc1ccc2c(c1)S/C(=C\c1cccc[n+]1C)N2CCO	inconclusive [inhibitor, partial curve]
O=C(NCc1cccs1)C12CC3CC(CC(C3)C1)C2	inactive
Cc1cc(N=Nc2ccccc2)cc(C)c1NC(=O)C(F)(F)F	inconclusive [inhibitor, single point]
COCCNC(=O)c1cccc(Nc2nc(-c3ccccc3)c3cc(Cl)ccc3n2)c1	active: 10 µM
O=c1[nH]c(CSc2ncnc3sccc23)nc2ccccc12	inconclusive [inhibitor, partial curve]
Cc1ccc(SCC(=O)N(C)CC(=O)Nc2cccc(F)c2)c(C)c1	inactive
O=C(NCCCc1ccccc1)c1cccc(NC(=O)C2CCCC2)c1	inconclusive [inhibitor, partial curve]
Cc1cccc(-c2nc(CN3CCCC(C(=O)NC4CCCCCC4)C3)c(C)o2)c1 (stereo not drawn)	inconclusive [inhibitor, single point]
O=C(C[n+]1ccccc1)N1c2ccccc2Sc2ccccc21	inconclusive [inhibitor, single point]
Cc1noc(C)c1CSc1ccccc1C(=O)N1CCN(c2ccccc2)CC1	inactive

SMILES	Potency
Cc1oc2cc3oc(=O)c(CCC(=O)NCCCn4ccnc4)c(C)c3cc2c1C	inconclusive [inhibitor, partial curve, poor fit]
CCCC[C@@H]1CNC(=S)N1CCc1cccc2ccccc12	inconclusive [inhibitor, single point]
CCN(CC)S(=O)(=O)c1ccc2[nH]cc(C(=O)NCCc3ccccc3)c(=O)c2c1	inconclusive [inhibitor, single point]
COc1cccc2cc(-c3nc(-c4cccs4)cs3)c(=O)oc12	inactive
COC(=O)C1=C(c2ccc(OC(F)(F)F)cc2)C[C@@H]2CC[C@H]1N2C(=O)NC1CCCCC1	inconclusive [inhibitor, single point]
CCOC(=O)C1CCN(C(=O)c2ccc(OCC(=O)Nc3ccc(OCC)cc3)c(OC)c2)CC1	inconclusive [inhibitor, partial curve]
CCN(CC)c1ccc(NC(=O)C2CCCN(S(=O)(=O)c3cccnc3)C2)c(C)c1 (stereo not drawn)	inconclusive [inhibitor, partial curve]
CN(CC(=O)Nc1ccc(Cl)cc1)CC(=O)Nc1ccc(F)c(F)c1F	inconclusive [inhibitor, partial curve]
COc1ccc(-c2ncnc(C(F)(F)F)c2-c2csc(C)n2)c(O)c1	inactive
C=CC(=O)NCNC(=O)C=C	inconclusive [inhibitor, single point]
Cc1ccc(C(=O)NC2CCCC(C)C2C)cc1S(=O)(=O)N1CCCCC1 (stereo not drawn)	inconclusive [inhibitor, single point]
COc1ccc(C(=O)NC2CC(C)(C)Cc3c2cnn3-c2ccccc2)c(OC)c1 (stereo not drawn)	inconclusive [inhibitor, partial curve]
COc1cc([C@H]2Oc3cc([C@H]4Oc5cc(O)cc(O)c5C(=O)[C@@H]4O)ccc3O[C@@H]2CO)ccc1O	inconclusive [inhibitor, single point]
COc1ccc(S(=O)(=O)NCc2cc(=O)n(C)c(=O)n2C)cc1F	inactive
CCn1c2ccccc2c2cc(NC(=O)CSc3nnc(-c4cccc(OC)c4)n3N)ccc21	active: 8.91 µM
Cc1nc(Sc2ccc(Br)cc2)c(C#N)c(C)c1[N+](=O)[O-]	inconclusive [inhibitor, single point]
Cc1ccccc1N(CC(=O)N/N=C/c1ccc(Cl)cc1)C(=O)c1ccccc1	inconclusive [inhibitor, single point]
O=C(CCCN1C(=O)/C(=C\c2cccs2)SC1=S)Nc1ccc(O)cc1C(=O)O	inactive
Cc1ccc2[nH]c3c(NCCN4CCOCC4)ncnc3c2c1	inactive
CCOCCCn1c(SC(C(=O)Nc2cc(C)ccc2C)c2ccccc2)nnc1-c1ccc(Cl)cc1 (stereo not drawn)	inconclusive [inhibitor, partial curve]
Cc1nn(C)cc1CN(C)C(=O)CCc1nnc(CCC2CCCCC2)o1	inactive
COc1ccccc1OCCN(C#N)c1nc(N(C)C)nc(N(C)C)n1	inconclusive [inhibitor, single point]
COc1cccc(C(=O)N(C)CC2CCN(CCc3cccc(C(F)(F)F)c3)CC2)c1	inconclusive [inhibitor, single point]

SMILES	Potency
CC(C)CC1NC(=O)N(CC(=O)Nc2ccc(-c3ccccc3)cc2)C1=O (stereo not drawn)	inconclusive [inhibitor, single point]
COc1c(Cl)cc(Cl)cc1CNCCNCC(C)O (stereo not drawn)	inconclusive [inhibitor, partial curve]
CC(C)CNC(=O)/C=C/C=C/c1ccc2c(c1)OCO2	inactive
CO/N=C/C(c1ncc(C(F)(F)F)cc1Cl)S(=O)(=O)c1ccccc1 (stereo not drawn)	inactive
CC(NCc1ccc(S(N)(=O)=O)cc1)C(=O)Nc1ccc([N+](=O)[O-])cc1Cl (stereo not drawn)	inconclusive [inhibitor, single point]
CC(C(=O)Nc1ccc([N+](=O)[O-])cc1)N1CCN(C/C=C/c2ccccc2)CC1 (stereo not drawn)	inconclusive [inhibitor, single point]
CCN(CC)CCNc1cc(C)c(C#N)c2nc3ccccc3n12	inactive
Cc1ccc(-c2nc3sc(C(N)=O)c(N)c3c3c2CCCC3)cc1	inconclusive [inhibitor, partial curve]
C[C@]12c3[nH]c4cc(-c5ccco5)ccc4c3CCN1C(=O)[C@@H](CC(=O)NCc1ccco1)C[C@@H]2C(=O)N1CCCCC1	inconclusive [inhibitor, single point]
CC(=O)Nc1ccc(NC(=O)CN(c2ccc([N+](=O)[O-])cc2)S(=O)(=O)c2ccccc2)cc1	inactive
O=C(CNCc1cccs1)NC12CC3CC(CC(C3)C1)C2	inactive
COc1ccc([N+](=O)[O-])cc1NC(=O)c1ccc(C)o1	inconclusive [inhibitor, single point]
CC1CC(C)CN(CCC(=O)Nc2ccc3c(c2)CCC3)C1 (stereo not drawn)	inconclusive [inhibitor, partial curve]
CO[C@H]1C=CO[C@@]2(C)Oc3c(C)c(O)c4c(O)c(c(C=NN5CCN(C)CC5)c(O)c4c3C2=O)NC(=O)C(C)=CC=C[C@H](C)[C@H](O)[C@@H](C)[C@@H](O)[C@@H](C)[C@H](OC(C)=O)[C@@H]1C	inactive
CC(=O)c1c(C)[nH]c(C(=O)NCCc2cccc(C)c2)c1C	inconclusive [inhibitor, single point]
CCCCN1CC(O)=C(c2nc3ccccc3s2)C1=N	inactive
COc1cc(OC)cc(-c2nc(-c3cccs3)no2)c1	inconclusive [inhibitor, partial curve, poor fit]
CC(=O)NCCC(=O)Nc1nc(-c2c[nH]c3ccccc23)cs1	inconclusive [inhibitor, single point]
C=C(C)CNC(=O)c1ccc(OC2CCN(C(=O)COC)CC2)cc1	inactive
CCCSc1nc2cc(OC)c(OC)cc2c(=N)n1CCCN1CCOCC1	active: 11.2 µM
CC(=O)c1ccc(S(=O)(=O)Nc2cc3c(cc2C(C)=O)OCO3)cc1	inactive
CCc1nc(Nc2ccc3c(c2)OCCO3)c2oc3ccccc3c2n1	inconclusive [inhibitor, single point]

Reference: PubChem BioAssay AID651820 (National Center for Advancing Translational Sciences (NCATS), 2012)
